Reference: PubChem BioAssay AID504332 (National Center for Advancing Translational Sciences (NCATS), 2011)
In all, about 350,000 compounds went through this assay and about 31,000 (8.9%) were called active. The inconclusive results got no clear call from the source; some entries with a clear call stand among them for comparison. Calls come from the whole dose curve; as a rule, active = well fitted inhibition curve with a large enough effect; inconclusive = small, poorly fitted or top-dose-only effect; inactive = no such curve, though single readings can be large or run the other way. Where the call is inconclusive, the potency comes from a doubtful curve fit.
% is set by controls: 0 for no effect and ±100 for the full control effect; potency is the fitted concentration of half-maximal effect; tags give direction and shape of the fitted curve.
Note: nearly all actives have a fitted effect of over 75% in size.

Each compound was assayed against Histone-lysine N-methyltransferase EHMT2 (Homo sapiens) (UniProt Q96KQ7) (assay: qHTS Assay for Inhibitors of Histone Lysine Methyltransferase G9a). Conditions: G9a H3K9 monomethylation, AlphaScreen, 2 h; activity, negative = inhibition: at 59 µM (top of the series) unless noted.
Chain of UniProt Q96KQ7 (Q96KQ7 whole entry, looked up): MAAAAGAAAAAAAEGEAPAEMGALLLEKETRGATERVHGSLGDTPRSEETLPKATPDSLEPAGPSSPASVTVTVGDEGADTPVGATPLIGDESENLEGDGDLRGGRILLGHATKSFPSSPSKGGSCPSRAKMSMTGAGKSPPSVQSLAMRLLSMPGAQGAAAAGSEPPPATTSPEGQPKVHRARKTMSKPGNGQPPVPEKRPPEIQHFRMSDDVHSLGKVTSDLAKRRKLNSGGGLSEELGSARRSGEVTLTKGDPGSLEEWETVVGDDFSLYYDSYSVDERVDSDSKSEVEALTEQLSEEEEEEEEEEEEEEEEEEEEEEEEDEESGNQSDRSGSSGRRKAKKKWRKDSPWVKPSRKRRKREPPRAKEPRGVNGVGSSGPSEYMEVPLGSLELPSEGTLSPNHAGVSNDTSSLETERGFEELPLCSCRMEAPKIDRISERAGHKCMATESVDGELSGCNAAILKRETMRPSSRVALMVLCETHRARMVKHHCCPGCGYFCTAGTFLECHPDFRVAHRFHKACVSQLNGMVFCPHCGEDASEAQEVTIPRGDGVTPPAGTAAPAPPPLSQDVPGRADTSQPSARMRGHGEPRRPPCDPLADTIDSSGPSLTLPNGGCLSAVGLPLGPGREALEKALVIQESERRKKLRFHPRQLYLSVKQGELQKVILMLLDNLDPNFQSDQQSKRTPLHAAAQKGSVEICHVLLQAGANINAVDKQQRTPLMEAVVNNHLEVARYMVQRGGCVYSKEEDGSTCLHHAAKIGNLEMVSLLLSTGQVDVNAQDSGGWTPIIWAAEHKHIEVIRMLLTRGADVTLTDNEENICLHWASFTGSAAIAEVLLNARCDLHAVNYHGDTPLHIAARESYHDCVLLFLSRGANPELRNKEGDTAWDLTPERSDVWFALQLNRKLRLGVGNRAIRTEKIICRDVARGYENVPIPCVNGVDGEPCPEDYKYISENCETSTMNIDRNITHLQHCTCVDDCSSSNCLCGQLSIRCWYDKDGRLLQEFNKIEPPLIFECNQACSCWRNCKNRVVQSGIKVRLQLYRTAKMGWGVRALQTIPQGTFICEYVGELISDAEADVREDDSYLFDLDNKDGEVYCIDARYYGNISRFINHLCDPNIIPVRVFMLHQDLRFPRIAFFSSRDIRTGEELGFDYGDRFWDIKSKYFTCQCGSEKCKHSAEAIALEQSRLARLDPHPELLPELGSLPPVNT
Procedure, shortened: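 Chemiluminescent proximity detection of H3K9 monomethylation, read after 10 min bead incubation in the dark. Reaction: 20 nM G9a, 500 nM biotin-H3K9 peptide, 20 uM SAM cofactor, 2 h, room temperature, following 15 min enzyme-compound preincubation.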
With `COc1ccc(C=C(c2nc3ccccc3s2)c2nc3ccccc3s2)cc1O` the Potency was inconclusive: 7.94 µM [inhibitor, partial curve, poor fit].
`O=C(c1ccc(N2CCCS2(=O)=O)cc1)N1CCN(c2ccccc2)CC1` was tested, and the Potency was inconclusive: 89.1 µM [inhibitor, single point].
`Cc1ccccc1Nc1nnc(SCC(=O)c2c(N)n(C3CC3)c(=O)[nH]c2=O)s1` was tested, and the Potency was active: 10 µM.
For `c1ccc(Cn2nnc3c(Nc4ccc5c(c4)OCO5)nc(C4CC4)nc32)cc1`, the Potency was “inactive”.
`O=[N+]([O-])c1cccc(NNS(=O)(=O)c2ccccc2F)c1` was tested, and the Potency was active: 1.12 µM.
`CCc1ccc2oc(=O)cc(CN3CCN(Cc4ccccc4)CC3)c2c1` was tested, and the Potency was active: 44.7 µM.
In the case of `CCNC(=S)N/N=C(\C)c1ccco1`, the Potency is reported as active: 35.5 µM.
`O=S(=O)(Nc1ccccc1Cl)c1cccc2nsnc12` was tested, and the Potency was inconclusive: 89.1 µM [inhibitor, single point].
`COc1cccc(/C=N/Nc2nnc(C)n2N)c1O` was tested, and the Potency was “inactive”.
With `Cc1cc(N2CCN(c3ccc(F)cc3)CC2)n2nc(-c3ccc(Cl)cc3)nc2n1` the Potency was “inactive”.
For `Cc1ccc(Cl)cc1N1CCN(c2cccc[n+]2C)CC1`, the Potency was inconclusive: 31.6 µM [inhibitor, partial curve, poor fit].
For `CCOC(=O)c1[nH]c(C)c(CCC(=O)Nc2ccccc2C(=O)OC)c1C`, the Potency was “inactive”.
`CCOc1cc(S(=O)(=O)NCC2OCCc3ccccc32)c(OCC)cc1-n1cnnn1` (configuration not stated) was tested, and the Potency was inconclusive: 79.4 µM [inhibitor, single point].
With `O=C(COc1ccc(F)cc1Br)N1CCN(c2ncccn2)CC1` the Potency was “inactive”.
In the case of `O=C(CSc1nc2ccccc2c(=O)[nH]1)Nc1ccccc1C(F)(F)F`, the Potency is reported as inconclusive: 39.8 µM [inhibitor, single point].
With `CCc1nnc(NC(=O)CSc2nc3[nH]c(=O)cc(O)c3s2)s1` the Potency was inconclusive: 7.08 µM [inhibitor, single point].
For `CS(=O)(=O)c1ccc(N)c(SSc2cc(S(C)(=O)=O)ccc2N)c1`, the activity, negative = inhibition was inconclusive: -124% [inhibitor] [at 2.33 µM].
In the case of `O=C1CC(N(Cc2ccco2)C(=O)Nc2ccc(F)cc2)C(=O)N1c1ccc(F)cc1` (configuration not stated), the Potency is reported as inconclusive: 3.98 µM [inhibitor, partial curve, poor fit].
For `Cc1oc2ccc(O)c(CN3CCN(C)CC3)c2c1C(=O)Nc1ccccc1`, the Potency was “inactive”.
`CC(=O)Nc1cccc(/C(C)=N/N2C(C)CCCC2C)c1` (configuration not stated) was tested, and the Potency was “inactive”.
For `Cc1cnc(NC(=O)NCC2CCCC(CNC(=O)Nc3ncc(C)s3)C2)s1` (configuration not stated), the Potency was inconclusive: 35.5 µM [inhibitor, full curve].
For `O=C(Nc1ccc(N2CCOCC2)cc1)c1ccc(-c2ccccc2[N+](=O)[O-])o1`, the Potency was active: 17.8 µM.
For `O=C(CN1CCCC1)Nc1ccccc1Sc1ccc(Cl)cc1`, the Potency was “inactive”.
With `CCOC(=O)C1=C(C)NC(SC)=C(C#N)C1CC(C)C` (configuration not stated) the activity, negative = inhibition was inactive: -7.12% [at 12.7 µM].
For `CC1CN(C2CCN(C(=O)COc3ccc(Cl)cc3)CC2)CC(C)O1` (configuration not stated), the Potency was inconclusive: 3.16 µM [inhibitor, single point].
In the case of `O=C(Nc1ncc([N+](=O)[O-])s1)c1ccccc1Br`, the Potency is reported as inconclusive: 89.1 µM [inhibitor, single point].
With `CCOC(=O)CCNC(C)C1COc2ccccc2O1` (configuration not stated) the Potency was active: 2.24 µM.
With `COC(=O)c1sc2nc(-c3ccco3)ccc2c1N` the activity, negative = inhibition was inconclusive: -93.2% [inhibitor].
With `CCOc1ccc(NCc2cccn2-c2nnc(N3CCC(C(=O)NCCCN4C(C)CCCC4C)CC3)s2)cc1` (configuration not stated) the Potency was active: 39.8 µM.
For `O=C(Nc1ccccc1)c1sc(N2CCOCC2)nc1-c1ccccc1`, the Potency was “inactive”.
`COCCN1C(=O)C(O)=C(C(C)=O)C1c1ccc(F)cc1` (configuration not stated) was tested, and the Potency was inconclusive: 2 µM [inhibitor, partial curve, poor fit].
For `O=C(O)CC(NC(=O)CCC1CCCCC1)c1cc([N+](=O)[O-])ccc1Cl` (configuration not stated), the Potency was inconclusive: 0.316 µM [inhibitor, full curve, poor fit].
`Cc1csc(NC(=O)c2ccc3c(c2)OCO3)n1` was tested, and the Potency was “inactive”.
For `c1ccc(-c2nc3ccccc3nc2-c2ccccn2)nc1`, the Potency was inconclusive: 8.91 µM [inhibitor, single point].
For `Cc1ccsc1CN(C(=O)COc1ccc(Cl)cc1)C1CCS(=O)(=O)C1` (configuration not stated), the Potency was “inactive”.
In the case of `CC1CN(Cc2ccc(C#N)cc2Cl)CC(C)O1` (configuration not stated), the Potency is reported as active: 35.5 µM.
`CC(C(=O)N1c2ccccc2CCc2ccccc21)n1nnc(-c2ccc(N(C)C)cc2)n1` (configuration not stated) was tested, and the Potency was inconclusive: 28.2 µM [inhibitor, single point].
`COc1cccc(CNCc2cccn2-c2nnc(N3CCN(c4ccccc4)CC3)s2)c1` was tested, and the Potency was inconclusive: 31.6 µM [inhibitor, single point].
`O=C(Oc1cccc2cccnc12)c1cccs1` was tested, and the Potency was inconclusive: 0.708 µM [inhibitor, full curve, poor fit].
With `COc1ccc(/C=N\Nc2ccc([N+](=O)[O-])cc2[N+](=O)[O-])c(C(=O)O)c1OC` the Potency was active: 25.1 µM.
In the case of `CN(Cc1ccccc1)S(=O)(=O)c1ccc(Cl)c(C(=O)NCCCN2CCOCC2)c1`, the Potency is reported as “inactive”.
In the case of `CC1CCN(S(=O)(=O)c2ccc3c(ccc(=O)n3CC(=O)NCc3ccccc3Cl)c2)CC1`, the Potency is reported as “inactive”.
For `CC(C)(O)C(=O)NNC(=S)Nc1ccc(F)c(Cl)c1`, the Potency was active: 44.7 µM.
In the case of `CN(C)C=Nc1ccccc1C1C=NNC1=O` (configuration not stated), the Potency is reported as active: 39.8 µM.
In the case of `CC(=O)C1=C(C)NC2=C(C(=O)c3ccccc32)C1c1ccccc1` (configuration not stated), the Potency is reported as inconclusive: 8.91 µM [inhibitor, partial curve, poor fit].
`CCc1cccc2c(C=C(C#N)C#N)cn(CC(=O)N3CCCCC3)c12` was tested, and the Potency was active: 44.7 µM.
With `O=[N+]([O-])c1ccc(OCCCCN2CCc3ccccc3C2)cc1` the Potency was active: 35.5 µM.
`CCc1ccc(CCC(=O)Nc2nc(CC(C)=O)ns2)o1` was tested, and the Potency was active: 70.8 µM.
With `Cc1ccc2nc(SCC(=O)NCc3ccco3)[nH]c2c1` the Potency was inconclusive: 28.2 µM [inhibitor, single point].
For `Cc1cc(NS(=O)(=O)c2ccc(NC(=O)C(CC(C)C)N3C(=O)c4ccccc4C3=O)cc2)nc(C)n1` (configuration not stated), the Potency was inconclusive: 50.1 µM [inhibitor, partial curve].
In the case of `Cc1ccc(C)c(OCc2cc(C(=O)N3CCC(N4CCCC(O)C4)CC3)no2)c1` (configuration not stated), the Potency is reported as inconclusive: 89.1 µM [inhibitor, single point].
`Cc1ccc2c(c1)c1c(c(=O)n(-c3ccccc3C)c(=O)n1CC(=O)c1ccc(Cl)cc1)n2C` was tested, and the Potency was inconclusive: 4.47 µM [inhibitor, partial curve, poor fit].
`CNC(=O)c1[nH]cnc1C(=O)Nc1ccccc1C` was tested, and the Potency was inconclusive: 28.2 µM [inhibitor, single point].
With `CCCN(CCO)Cc1cccc(Br)c1` the Potency was inconclusive: 3.16 µM [inhibitor, partial curve, poor fit].
With `C[C@H](NC(=O)c1ccco1)C(=O)NCc1cccs1` the Potency was inconclusive: 3.55 µM [inhibitor, single point].
With `O=[N+]([O-])c1cc2c(cc1/C=N/Nc1nc(Nc3ccccc3)nc(N3CCCCC3)n1)OCO2` the Potency was “inactive”.
`Cn1nc(C(=O)OCC(=O)c2ccc(Br)cc2)c2ccccc2c1=O` was tested, and the Potency was inconclusive: 31.6 µM [inhibitor, partial curve, poor fit].
With `CN(C)c1ccc(CNC(=O)CN2C(=O)CSc3ccc(S(=O)(=O)N4CCCC4)cc32)cc1` the Potency was active: 11.2 µM.
For `CCSc1ncc(Cl)c(C(=O)Nc2nc3ccc(Cl)cc3s2)n1`, the Potency was “inactive”.
`C#CCOCCOCCOCCNc1nc(N2CCN(C(=O)[C@H](CCC(=O)O)n3cc(C(N)Cc4ccc(O)cc4)nn3)CC2)nc(N2CCN(C(=O)[C@H](CCC(=O)O)n3cc(C(N)Cc4ccc(O)cc4)nn3)CC2)n1` (some centres not stated) was tested, and the activity, negative = inhibition was inconclusive: -94.5% [inhibitor].
For `CN(C)c1cccc(C(=O)Nc2nc3ccc(S(=O)(=O)N4CCCC4)cc3s2)c1`, the Potency was inconclusive: 39.8 µM [inhibitor, single point].
In the case of `CCOc1ccc(CNC(=O)C(CC)n2nc(C)n3c(cc4occc43)c2=O)cc1OC` (configuration not stated), the Potency is reported as active: 50.1 µM.
For `CCCOc1ccc2[nH]cc(C(=O)O)c(=O)c2c1`, the Potency was inconclusive: 1.78 µM [inhibitor, partial curve, poor fit].
`O=C1COc2ccc(-c3csc(=Nc4ccc(OC(F)F)cc4)n3CC3CCCO3)cc2N1` (configuration not stated) was tested, and the activity, negative = inhibition was inactive: 27.1% [at 0.501 µM].
In the case of `COc1cccc(N2CCN(C(=O)c3ccc(=O)oc3)CC2C)c1` (configuration not stated), the Potency is reported as inconclusive: 89.1 µM [inhibitor, single point].
With `N#Cc1c(N2CCN(c3ccc(F)cc3)CC2)nc(N)c2c(N)nc3c(c12)CC(=O)N3C1CC1` the Potency was inconclusive: 10 µM [inhibitor, full curve].
For `CCC1CN(C(=O)N2CCC(C(=O)NCc3cc(OC)c(OC)c(OC)c3)CC2)c2ccccc2O1` (configuration not stated), the Potency was “inactive”.
`Cn1c(=O)c2c(nc(CN3CCN(Cc4ccccc4)CC3)n2CCN2CCOCC2)n(C)c1=O` was tested, and the Potency was inconclusive: 3.16 µM [inhibitor, partial curve, poor fit].
`C=CCN1C(=O)/C(=C\c2ccc(Oc3nc(N4CCOCC4)nc(N4CCOCC4)n3)c(OC)c2)SC1=S` was tested, and the Potency was inconclusive: 6.31 µM [inhibitor, partial curve].
`CCOc1cc(C2c3c(n[nH]c3C)C(=O)N2c2ccc(C)cc2)ccc1O` (configuration not stated) was tested, and the activity, negative = inhibition was inactive: 7.66% [at 12.7 µM].
In the case of `O=C(NNc1nc(-c2ccc(Br)cc2)cs1)c1ccco1`, the Potency is reported as active: 28.2 µM.
For `COc1ccc(OC)c(C2C(C#N)=C(N)N(N(C)C)C3=C2C(=O)CC(C)(C)C3)c1` (configuration not stated), the Potency was inconclusive: 1.58 µM [inhibitor, partial curve, poor fit].
